One experiment has as its target 2dV-Camuiα (rat) (UniProt P11275). In words: SEC. For orientation: SEC sorts molecules by how far they enter the pores of the column.
For the next experiment, the target named is Green-Camuiα (rat) (UniProt P11275). The experiment can be described thus: SEC.

Among the data in doi:10.1101/2023.08.01.549180 are stoichiometry N values, retold here.

A word on the stoichiometry N: it is the number of molecules, sites or subunits per partner or assembly. On to “2dV-Camuiα (a stretch of the chain, chain not printed) (natural protein; other documents disagree on this pair)”, for which the stoichiometry N with 2dV-Camuiα (rat) is 12. “Green-Camuiα (a stretch of the chain, chain not printed) (natural protein; other documents disagree on this pair)” showed a stoichiometry N with Green-Camuiα (rat) of 12.
